The inconclusive results got no clear call from the source; some entries with a clear call stand among them for comparison. No potency is given beside an inconclusive call; the fits are too rough. Active and inactive are the calls of the source. Unless noted, the call rests on the fitted dose curve; in most records, active means well fitted cell-killing curve with a large enough effect in the repeat runs; inconclusive means weak or mixed curves, or effect the other way; inactive means no such curve, though single readings can be large or run the other way.
target: Bile acid receptor (Homo sapiens) (UniProt Q96RI1); assay: qHTS assay to identify small molecule antagonists of the farnesoid-X-receptor (FXR) signaling pathway (AID 743217; active means well fitted inhibition curve with a large enough effect in the signal ratio in the repeat runs, not every such curve was filed as active; inconclusive means weak or mixed curves, or effect the other way; inactive means no such curve, though single readings can be large or run the other way; the % refers to the signal ratio); conditions: HEK293T FXR-UAS-bla, beta-lactamase ratio, CDCA-stimulated, 16 h; activity change, negative = inhibition: at 62.6 µM (top of the series) unless noted
How it was run: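 GeneBLAzer FXR-UAS-bla HEK 293T, CDCA-stimulated (50 uM final). Compound treatment 16 h, 37 °C. Detection: beta-lactamase cleavage of B/G FRET substrate, fluorescence.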
On the % scale 0 is the no-effect control and ±100 the full control effect; potency means the concentration at half of the fitted maximal effect; tags describe the fitted curve by direction and shape or compound fluorescence and quenching.

UniProt Q96RI1, sequence (Q96RI1 whole entry, looked up): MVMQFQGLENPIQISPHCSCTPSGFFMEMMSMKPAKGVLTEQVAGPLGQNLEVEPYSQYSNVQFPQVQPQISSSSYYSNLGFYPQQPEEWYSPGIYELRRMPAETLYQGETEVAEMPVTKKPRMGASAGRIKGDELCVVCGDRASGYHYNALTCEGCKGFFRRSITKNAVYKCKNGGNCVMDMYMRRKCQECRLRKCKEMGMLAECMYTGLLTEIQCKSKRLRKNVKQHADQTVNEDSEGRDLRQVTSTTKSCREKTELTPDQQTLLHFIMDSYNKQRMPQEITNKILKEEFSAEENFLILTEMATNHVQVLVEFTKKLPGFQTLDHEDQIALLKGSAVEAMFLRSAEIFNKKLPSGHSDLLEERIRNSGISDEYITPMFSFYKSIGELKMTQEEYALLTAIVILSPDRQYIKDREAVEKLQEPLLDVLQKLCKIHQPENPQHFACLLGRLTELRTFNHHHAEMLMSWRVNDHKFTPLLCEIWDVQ

| SMILES | Potency | activity change, negative = inhibition |
| --- | --- | --- |
| Cc1cccc2ccccc12 | inconclusive [activator, partial curve, poor fit] | – |
| c1cnc2cc3c(cc2n1)C1CNCC3C1 | – | inactive: -0.412% |
| CC(C)C/C=C(\C=O)c1ccccc1 | – | inconclusive: 4.19% |
| COc1cc2c(Nc3ccc(Br)cc3F)ncnc2cc1OCC1CCN(C)CC1 | – | inactive: -2.48% |
| CC(C)OP(=O)(CP(=O)(OC(C)C)OC(C)C)OC(C)C | inactive | – |
| Cc1nc2ccc(Cl)cc2[nH]1 | – | inactive: 0.22% |
| CNC(=O)Nc1ccc(Cl)c(Cl)c1 | – | inactive: -7.95% |
| CC(=O)O[C@H]1C[C@@H]2CC[C@@]1(C)C2(C)C | – | inactive: -0.103% |
| c1ccc(SCCSc2ccccc2)cc1 | – | inactive: -0.0627% |
| CCOCCO | inactive | – |

test system: not listed separately; assay: qHTS assay to identify small molecule agonists of the farnesoid-X-receptor (FXR) signaling pathway - cell viability counter screen (AID 743218); conditions: FXR-bla HEK293T viability, CellTiter-Glo luminescence, 16 h; viability change, negative = cytotoxic: at 62.6 µM (top of the series) unless noted; further: nearly all actives have a fitted effect of over 45% in size
How it was run: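 Parallel cytotoxicity test: compound-treated (16 h, 37 C) HEK 293T FXR-bla reporter cells were lysed with CellTiter-Glo and luminescence recorded.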

| SMILES | Potency | viability change, negative = cytotoxic |
| --- | --- | --- |
| O=C1CCCC1 | inactive | – |
| CCC1(c2ccccc2)C(=O)NCNC1=O | inactive | – |
| C/C=C1/CC2C=CC1C2 (configuration not stated) | inconclusive [rising, partial curve, poor fit] | – |
| Nc1ccn([C@H]2CC[C@@H](CO)O2)c(=O)n1 | inactive | – |
| N#CCN(CC#N)CCN(CC#N)CC#N | inconclusive [rising, single point] | – |
| COc1cc([N+](=O)[O-])ccc1N | inconclusive [cytotoxic, full curve, poor fit] | – |
| CC(C)(C)C(=O)Oc1ccc(S(=O)(=O)Nc2ccccc2C(=O)NCC(=O)O)cc1 | inconclusive [rising, partial curve, poor fit] | – |
| CC(=O)O[C@H]1C[C@@H]2CC[C@@]1(C)C2(C)C | inconclusive [rising, partial curve] | – |
| C=CC(C)(O)CCCC(C)CCCC(C)CCCC(C)C (configuration not stated) | – | inactive: 21.7% |
| CCCCCCOC(=O)CCCCCCCC(=O)OCCCCCC | inconclusive [rising, partial curve] | – |
| NC(=O)c1ccccc1 | inconclusive [rising, full curve, poor fit] | – |
| CCO[Si](CCC#N)(OCC)OCC | inconclusive [rising, partial curve, poor fit] | – |

test system: not listed separately; assay: qHTS assay to identify small molecule antagonists of the farnesoid-X-receptor (FXR) signaling pathway - cell viability counter screen (AID 743221; active means well fitted cell-killing curve with a large enough effect in the repeat runs, not every such curve was filed as active; inconclusive means weak or mixed curves, or effect the other way; inactive means no such curve, though single readings can be large or run the other way; further: nearly all actives have a fitted effect of over 50% in size); conditions: FXR-bla HEK293T viability, CellTiter-Glo luminescence, 16 h; activity change, negative = cytotoxicity: at 62.6 µM (top of the series) unless noted
How it was run: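 Cytotoxicity is taken from ATP luminescence (CellTiter-Glo, 30 min, room temperature) in FXR-bla HEK 293T cells previously incubated 16 h at 37 C with compound and chenodeoxycholic acid at 50 uM final.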

| SMILES | activity change, negative = cytotoxicity | Potency |
| --- | --- | --- |
| CCCCCC/C=C/C(=O)OC | inactive: 2.98% | – |
| C/C=C1/CC2C=CC1C2 (configuration not stated) | – | inactive |
| CC(C)C/C=C(\C=O)c1ccccc1 | – | inconclusive [falling, partial curve, poor fit] |
| COc1cc2c(Nc3ccc(Br)cc3F)ncnc2cc1OCC1CCN(C)CC1 | inactive: -0.23% | – |
| O=C(O)CCCC[P+](c1ccccc1)(c1ccccc1)c1ccccc1 | inactive: -4.79% | – |
